Some test systems named below: 786-0 renal; A549 NSCLC; CAKI-1 renal; COLO 205 colon; DU-145 prostate; HCC-2998 colon; HL-60(TB) leukemia; HOP-62 NSCLC; HOP-92 NSCLC; HS 578T breast; K-562 leukemia; M14 melanoma; NCI-H226 lung; NCI-H23 lung; NCI-H460 lung; NCI-H522 lung; OVCAR-4 ovarian; OVCAR-5 ovarian; RPMI-8226 leukemia; RXF 393 renal; SF-268 CNS; SF-295 CNS; SF-539 CNS; SK-MEL-2 melanoma; SK-OV-3 ovarian; SR leukemia; SW-620 colon; TK-10 renal; U251 CNS; UACC-62 melanoma; UO-31 renal; CCRF-CEM leukemia; MALME-3M melanoma; MCF7 breast; PC-3 prostate; HT29 colon; MDA-MB-231 breast; NCI/ADR-RES ovarian.

Test in all cases: NCI-60 cell line screen, 48 h

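Five concentrations, 48 hours, 96-well plates. GI50: concentration for 50% inhibition of growth.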 Certain results were filed several times, with different values. Only these are listed. There may be further records. A record mostly stands for its own series of concentrations, which the source does not state; a value can be the end of its range.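 TGI denotes the concentration required for complete inhibition of growth.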 Bounds are passed on as bounds.

Consider 4 compounds from PubChem BioAssay (NCI).

As to `Cc1c(N)nc([C@H](CC(N)=O)NC[C@H](N)C(N)=O)nc1C(=O)N[C@H](C(=O)N[C@H](C)[C@@H](O)[C@H](C)C(=O)N[C@H](C(=O)NCCc1nc(-c2nc(C(=O)NCCC[S+](C)C)cs2)cs1)[C@@H](C)O)C(OC1OC(CO)C(O)C(O)C1OC1OC(CO)C(O)C(OC(N)=O)C1O)c1cnc[nH]1` (stereo not given in full), the TGI with 786-0 renal is reported as 17.1, 4.23, 6.03, 37.1 µM; in the experiment on A549 NSCLC, 21.5 µM, 25 µM, 29 µM, > 100 µM; with CAKI-1 renal, 1.69, 25, 29, 36.8 µM; with COLO 205 colon it was 21.9, 25, 29, 66.2 µM; in the experiment with HCC-2998 colon it was 20.4 µM, 25 µM, 29 µM, > 100 µM; with HL-60(TB) leukemia it was 22.8, 12.2, 6.33, 67.9 µM. The TGI with HOP-62 NSCLC was 2.12 µM, 1.25 µM, 1.65 µM, > 100 µM; in the experiment on HOP-92 NSCLC, 3 µM, 454 nM, 2.77 µM, 8.91 µM; in the experiment with HS 578T breast, 866 nM [1 test] and 14 µM [mean of 2 tests] and 18 µM [mean of 33 tests]; in the experiment on K-562 leukemia, > 25 µM, 29 µM, 54.6 µM [1 test] and 21.8 µM [mean of 119 tests]; with M14 melanoma, 16.8 µM, 18.8 µM, 17 µM, > 100 µM; in the experiment on NCI-H226 lung it was 3.02, 4.39, 10.7, 22.8 µM. The TGI with NCI-H23 lung was 8.63, 7.23, 4.03, 18.4 µM; in the experiment with NCI-H522 lung, 7.58, 5.11, 8.55, 17 µM; with OVCAR-4 ovarian it was 20.3, 10.4, 29, 56.5 µM; in the experiment with OVCAR-5 ovarian, 16.7 µM, 25 µM, 16.3 µM, > 100 µM; with RPMI-8226 leukemia it was 23.9 µM, > 25 µM, > 29 µM, > 100 µM; in the experiment on RXF 393 renal, 3.37 µM, 354 nM, 1.15 µM, 4.31 µM. Moreover, the TGI with SF-268 CNS is 20, 8.45, 29, 43.4 µM; with SF-295 CNS, 3.93, 1.41, 3, 10.3 µM; in the experiment with SF-539 CNS, 524 nM, 183 nM, 1.23 µM, 1.1 µM; in the experiment on SK-MEL-2 melanoma it was 21.3 µM, > 25 µM, > 29 µM, > 100 µM; in the experiment on SK-OV-3 ovarian it was 22.4 µM, 25 µM, 29 µM, > 100 µM; in the experiment on SR leukemia, 2.08 µM and 157 nM. Besides, the TGI in the experiment with SW-620 colon is reported as 23.7 µM, 25 µM, 29 µM, > 100 µM; with TK-10 renal, 23.7 µM, 5.17 µM, > 100 µM; in the experiment on U251 CNS it was 12.5 µM, 25 µM, 29 µM, > 100 µM; in the experiment on UACC-62 melanoma, 5.77, 4.64, 1.57, 19.2 µM; in the experiment with UO-31 renal, 7.12, 1.91, 7.08, 4.78 µM. The GI50 in the experiment with DU-145 prostate is 341 nM [mean of 2 tests] and 4.42 µM [mean of 33 tests]; in the experiment with HS 578T breast, 112 nM [1 test] and 942 nM [mean of 2 tests] and 1.89 µM [mean of 33 tests]; in the experiment on NCI-H460 lung, 18.5 nM and 389 nM.

With `CO[C@H]1C[C@@H]2CC[C@@H](C)[C@@](O)(O2)C(=O)C(=O)N2CCCC[C@H]2C(=O)O[C@H]([C@H](C)C[C@@H]2CC[C@@H](OC(=O)C(C)(CO)CO)[C@H](OC)C2)CC(=O)[C@H](C)/C=C(\C)[C@@H](O)[C@@H](OC)C(=O)[C@H](C)C[C@H](C)/C=C/C=C/C=C/1C`, the TGI was 4.63 nM and > 100 µM in the experiment with CCRF-CEM leukemia; 90.9 nM and 11.3 µM with HOP-92 NSCLC; 21.4 nM and > 58.1 µM in the experiment on MALME-3M melanoma; 19.4 nM and > 100 µM in the experiment on MCF7 breast; 19.9 nM and > 100 µM in the experiment on TK-10 renal.

For `Cc1cc2c(cc1C)[n+](=O)c(C(=O)c1cccs1)c(C(F)(F)F)n2[O-]`, the TGI in the experiment on PC-3 prostate is 2.64 µM and > 100 µM; in the experiment on TK-10 renal, 4.79 µM and 69.4 µM.

Regarding `COC1(OC)C[C@H](C)[C@@]23O[C@]24c2cc(O)c5c(c2N[C@H]3C#C/C=C\C#C[C@]14O)C(=O)c1ccccc1C5=O`, the TGI with HT29 colon is 353 nM and 7.97 µM; in the experiment on MALME-3M melanoma it was < 1 nM and 181 nM; in the experiment on MDA-MB-231 breast it was 67.1 nM and 1.58 µM; in the experiment with NCI-H460 lung, < 1 nM and 382 nM; with NCI/ADR-RES ovarian, 15.3 nM and 15.8 µM; with SF-268 CNS, 27.6 nM and 3.84 µM.
